Some of the results follow.
Target: T1, OsWOX13 (Oryza sativa, UniProt Q5QMM3 1-267)
T1 sequence: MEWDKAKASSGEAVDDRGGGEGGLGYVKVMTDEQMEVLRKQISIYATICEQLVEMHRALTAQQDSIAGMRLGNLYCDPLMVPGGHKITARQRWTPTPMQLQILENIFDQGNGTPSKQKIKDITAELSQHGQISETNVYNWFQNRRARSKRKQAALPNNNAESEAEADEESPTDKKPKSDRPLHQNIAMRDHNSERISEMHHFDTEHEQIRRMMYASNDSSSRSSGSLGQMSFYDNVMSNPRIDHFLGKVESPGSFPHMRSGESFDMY
Assay: protein-binding microarray (RPBM); PBS, 2% BSA, 51.3 ng/ul salmon testes DNA, 50 uM zinc acetate, 200 nM TF, 25 C, 1 h; high values mean tight binding
Conditions: protein: recombinant; tags: N-terminal polyhistidine and DsRed monomer fusion (pET32a); label: CyDye5-dUTP incorporated in the synthesized complementary strand; 3' TTTTT single-stranded linker to array surface; dsDNA, one strand shown
In short: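 Transcription factors were made in E. coli BL21-CodonPlus as N-terminal fusions to a polyhistidine tag and DsRed, then purified on Ni–NTA. After primer extension with Cy5-dUTP and blocking with 2% BSA, a custom Agilent array was exposed for 1 h at 25 °C to 200 nM protein in PBS, 2% BSA, salmon testes DNA and 50 µM zinc acetate. Washed arrays were scanned on an Axon 4000B, and the binding signal is per-feature fluorescence intensity in arbitrary units.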

Sequence	binding signal
AAAATACTCACAATTAATTATATGTAGTTAGCTTCTGTAACGGAGTCACCTAGTGCAG	10000 fluorescence intensity (a.u.)
AACATCGACATGATTGATGCCTGCCAATTAGCTCAGGAGGCGGAGTCACCTAGTGCAG	28200 fluorescence intensity (a.u.)
TTCGTGATAGTTTCGTGATAAATTTGGCACTAAATCTGCACGGAGTCACCTAGTGCAG	10600 fluorescence intensity (a.u.)
GCTGATGACGTCCCTATCGGTTCTTATCTCAGTTCCTCCCCGGAGTCACCTAGTGCAG	4130 fluorescence intensity (a.u.)
TAAATTTATCATTAAACAAACTATCATAATATACAACTCTCGGAGTCACCTAGTGCAG	9070 fluorescence intensity (a.u.)
CGAATCCGGTGATTGTTACAGGAGGGTATTTGATCATGAACGGAGTCACCTAGTGCAG	7910 fluorescence intensity (a.u.)
ACTTAATTTGATCTAGAATGTGCAGACAGTCTCTTGAACCCGGAGTCACCTAGTGCAG	40800 fluorescence intensity (a.u.)
TTTGGTTAAAATTAAATTGTTTTAACTTTGATCAAGTTTACGGAGTCACCTAGTGCAG	9070 fluorescence intensity (a.u.)
AATTGATTTATTTTGAAACAGAGAGAATACAGTTTATTTACGGAGTCACCTAGTGCAG	32400 fluorescence intensity (a.u.)
TGCCAAGTCGCCGGTGCCTTGTCAATCAAGCTCCAGGTGGCGGAGTCACCTAGTGCAG	3400 fluorescence intensity (a.u.)
TTGTAATTTCATTACTTAATGAAATCAACCCCATTATCCACGGAGTCACCTAGTGCAG	18100 fluorescence intensity (a.u.)
AGTAATTACTAAACATTCCTACGAGCAGTTTCATCCAAAGCGGAGTCACCTAGTGCAG	12400 fluorescence intensity (a.u.)
AATTGACTGGGTTGACGTTGTAGCCCGAGTTGCGAAATTCCGGAGTCACCTAGTGCAG	11600 fluorescence intensity (a.u.)
TCCATATGCCCTGTCAATTATACACGGGCCAGAAAATCCTCGGAGTCACCTAGTGCAG	5750 fluorescence intensity (a.u.)
ACTCACTTGATTTGTACTTTTACACAAGTTTATATTTGAGCGGAGTCACCTAGTGCAG	20600 fluorescence intensity (a.u.)
CATATAATGGATTGTAATTAATACATGACTACATATGTTTCGGAGTCACCTAGTGCAG	15100 fluorescence intensity (a.u.)
CCAAATTAATAAGGGTCAATTGGATCCATGGCAATATAAACGGAGTCACCTAGTGCAG	3660 fluorescence intensity (a.u.)
TAAATTGCTGCGACATTAATTTCGCAGAGTTTCCCGGCAACGGAGTCACCTAGTGCAG	4500 fluorescence intensity (a.u.)
CTCCATGATGAGTGAAGATAGGTAAAGTAACCAGGGCCTCCGGAGTCACCTAGTGCAG	5660 fluorescence intensity (a.u.)
CCAAATTAATCACGACCGTCCATGTAGTTCTCCACCAACCCGGAGTCACCTAGTGCAG	20400 fluorescence intensity (a.u.)
GGCTGTGATTGTGAGTTTGTGACCGAGACCTTAAGCTTATCGGAGTCACCTAGTGCAG	12200 fluorescence intensity (a.u.)

Sequence	binding signal
TACGTTTTACAATCATCTAATTTACACTTATACTTCTATCCGGAGTCACCTAGTGCAG	7020 fluorescence intensity (a.u.)
TTCATATGATGGATGCGGTTTCTGATGAGTTTGCATTTGGCGGAGTCACCTAGTGCAG	5060 fluorescence intensity (a.u.)
GCTAAATGTTATTCACCGATTGTTTCCCAACTGTCAAGGTCGGAGTCACCTAGTGCAG	3810 fluorescence intensity (a.u.)
CAACCAATCAAGCCTCTTCTTATTTAATTCTACATACTTTCGGAGTCACCTAGTGCAG	11400 fluorescence intensity (a.u.)
AGCTAAATAAACAACTAACCATCATTGTAATTTCTGCACACGGAGTCACCTAGTGCAG	5350 fluorescence intensity (a.u.)
ATCCCAAACTCGTAAATACTCGCGAACCCCGAGGGCGAAGCGGAGTCACCTAGTGCAG	6310 fluorescence intensity (a.u.)
CTCATGATTAATTACGCTCTTTGAAATTTTATTGGAATTTCGGAGTCACCTAGTGCAG	34800 fluorescence intensity (a.u.)
ACTGAAATTTTCATAATAAAATACCTCCGCTGACAGCTGACGGAGTCACCTAGTGCAG	3320 fluorescence intensity (a.u.)
AAGCCTAATTAATCCGTTATTAGCAAATGTTTACTGTAGCCGGAGTCACCTAGTGCAG	11300 fluorescence intensity (a.u.)
GAAGCTTAATTAGGCTCAAAAGATTGTCTCGCGGTTTCCACGGAGTCACCTAGTGCAG	16200 fluorescence intensity (a.u.)
AAGGATAATTTACTAAGGTGGTTATCTCTGGTAATTAGTTCGGAGTCACCTAGTGCAG	14200 fluorescence intensity (a.u.)
TTTAATAATTTGTTTATAAAAGAAACTAAAGGGCACTGCTCGGAGTCACCTAGTGCAG	12200 fluorescence intensity (a.u.)
AATGTATACAAGTTGTTAATTAGCTTTCGAGATGTATTCACGGAGTCACCTAGTGCAG	3210 fluorescence intensity (a.u.)
CGTGGTCAGTCAATCGGGATTTGAGATCTTCAGATTTACTCGGAGTCACCTAGTGCAG	3270 fluorescence intensity (a.u.)
TCTTTTAAAATGGTGAAGTTAATTAGCTGGCTATCATATACGGAGTCACCTAGTGCAG	5580 fluorescence intensity (a.u.)
ATTTGTGTTTTGATGATTGATAGTGTTTCGATCCAGAAGACGGAGTCACCTAGTGCAG	26600 fluorescence intensity (a.u.)
ATAATGGACAATTTAAAACCTATTTACATCTCCAAATAACCGGAGTCACCTAGTGCAG	10600 fluorescence intensity (a.u.)
TCTGATTGCATTCCATCTAACAGCCTCATCCTTTTGCTTACGGAGTCACCTAGTGCAG	50700 fluorescence intensity (a.u.)
ACCGTAGCATAATTACAACTGACGCGTGAGTTGTCTGGATCGGAGTCACCTAGTGCAG	3630 fluorescence intensity (a.u.)
CTTCCCCTGATGATTGGCCTGAAATGGATGCTCAGGAATTCGGAGTCACCTAGTGCAG	17000 fluorescence intensity (a.u.)
GCATATAATTAGCCTCATTGGTGGTCCATGAAGCTCTCCCCGGAGTCACCTAGTGCAG	17000 fluorescence intensity (a.u.)
